# Experimental data from the supplement of paper PMC3334620.
# Over roughly 33,000 sequences, “E-score (-0.5 to 0.5)” has its median near -0.041; the highest 2% begin near 0.37. The list shows a part of the results.
# Biological target: T1, Ecm22 (UniProt Q05958)
# T1 sequence: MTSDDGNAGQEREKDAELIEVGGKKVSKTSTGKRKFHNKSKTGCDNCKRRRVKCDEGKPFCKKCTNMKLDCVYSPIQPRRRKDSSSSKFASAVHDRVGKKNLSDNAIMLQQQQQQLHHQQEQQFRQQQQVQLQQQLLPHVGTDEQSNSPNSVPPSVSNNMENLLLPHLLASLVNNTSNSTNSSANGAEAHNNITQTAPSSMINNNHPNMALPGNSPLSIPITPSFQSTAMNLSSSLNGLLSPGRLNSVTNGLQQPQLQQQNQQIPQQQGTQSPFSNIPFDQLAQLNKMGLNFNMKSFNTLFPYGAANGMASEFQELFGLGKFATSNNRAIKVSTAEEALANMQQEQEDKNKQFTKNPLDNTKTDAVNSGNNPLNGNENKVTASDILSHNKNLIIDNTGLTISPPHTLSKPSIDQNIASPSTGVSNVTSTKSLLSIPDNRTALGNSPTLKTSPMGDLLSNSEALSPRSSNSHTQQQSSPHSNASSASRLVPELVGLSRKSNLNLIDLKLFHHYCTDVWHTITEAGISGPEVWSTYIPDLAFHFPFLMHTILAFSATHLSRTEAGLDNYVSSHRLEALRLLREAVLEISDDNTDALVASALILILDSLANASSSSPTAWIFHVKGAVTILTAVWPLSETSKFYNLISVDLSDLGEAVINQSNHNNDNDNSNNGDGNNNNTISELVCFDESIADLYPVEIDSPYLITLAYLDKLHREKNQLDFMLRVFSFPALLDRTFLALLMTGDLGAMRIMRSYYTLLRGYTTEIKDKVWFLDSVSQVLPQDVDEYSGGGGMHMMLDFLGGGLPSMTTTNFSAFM
# Experiment: PBM E-score (8-mer binding enrichment) (E-score (-0.5 to 0.5)); higher = stronger / more preferred TF binding; most listed sequences are background and not binding sites
# Settings: protein concentration: 200 nM; construct: GST-full length
# Summary of the method: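 GST-tagged yeast TFs (full-length or DNA-binding domain) were made by PURExpress in vitro transcription/translation and applied at about 100-200 nM to universal all-10-mer Agilent arrays. The arrays were made double-stranded by primer extension, on fresh or once-stripped slides. Bound protein was detected with fluorescent anti-GST, and scans were normalised with masliner. Each ungapped eight-base word, pooled with its reverse complement, received an E-score (modified Wilcoxon-Mann-Whitney statistic) from the Universal PBM Analysis Suite.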
row,Sequence,PBM E-score
1,GCTAGGTA,-0.0337
2,GTGATCTA,0.105
3,CATACGTA,0.288
4,ACCACATA,-0.00349
5,ACGCATCG,0.214
6,CTCTTTAA,-0.137
7,ATAACTCA,-0.0407
8,GAACGTAC,0.28
9,GGGCATAA,-0.0832
10,ACTCTTGA,-0.111
11,TCAATTAA,-0.0509
12,GAACTCTA,0.0489
13,CGTTGGGC,-0.225
14,GGAGCGAC,0.339
15,AGGCTGAT,-0.145
16,CCAAAAAA,-0.208
17,GCTCCCCC,-0.255
18,ACCCTTCC,-0.204
19,CAGATTCA,-0.281
20,GTGGTAAA,-0.0723
21,GATTCTGC,0.0157
22,ATCAAACG,0.329
23,GCGATCGA,0.2
24,ACTTCGGC,-0.0475
25,ATTGAAAA,-0.0292

row,Sequence,PBM E-score
1,GCTAATTA,0.0782
2,ATCCCGAT,-0.0346
3,ATTACTGC,0.0771
4,GTAGAGAA,0.164
5,AGCTCCCA,-0.0499
6,ACCGTGCA,0.105
7,CCAACTAA,-0.0761
8,CCAGAATA,0.0266
9,AAAAACTC,-0.0804
10,AACATCTA,-0.163
11,CCACTTCA,-0.179
12,CACGGTCC,-0.135
13,CGGAAGAC,-0.0175
14,CTTTAGCA,-0.272
15,GCCTTAAA,0.018
16,AAGTTGGA,-0.144
17,ACATGTGG,-0.117
18,CGGTTTAA,0.217
19,CGTTAGGA,0.0298
20,ACGCCCAT,0.0165
21,CATCAGAC,-0.11
22,CACTATTA,0.105
23,CGATATTA,0.214
24,ACCCATGG,-0.231
25,GCAGAAAA,0.129

row,Sequence,PBM E-score
1,CCATGAGG,-0.13
2,CTTTCATC,-0.209
3,TCATACGA,0.463
4,CGCGGCCC,0.0405
5,GAGCTGAC,-0.0324
6,GACGGAAC,0.0799
7,TTATCCAA,-0.0862
8,AGGTCTGA,-0.113
9,AGCAGTGG,-0.127
10,CTGCGACC,-0.169
11,AACGCCGA,0.149
12,ATAGCGGA,-0.0269
13,GGACAATA,-0.188
14,CTAGCTTA,-0.244
15,AGCGGAAC,0.234
16,CCTTGCCG,-0.0884
17,ACTCGAGG,-0.0795
18,AGAAAAAT,0.00769
19,GACAGCGC,0.0726
20,AGAACAAG,0.0882
21,AATGATCC,0.00369
22,AAGAGGCA,0.0751
23,GTTGTATA,0.0728
24,AAGTAGCT,-0.0254
25,AGTTAGAG,-0.143

row,Sequence,PBM E-score
1,CTGTTTCC,-0.139
2,CACGTGCC,-0.181
3,CCAAGCAA,-0.172
4,AGAATTGA,0.0376
5,GTTAGTGA,-0.0322
6,AAAGTCGG,0.0415
7,ACGTGTGC,-0.0736
8,CCTGTAAC,-0.0164
9,GCCATAGC,-0.226
10,AAATCATC,-0.0425
11,AGACTCTG,-0.142
12,AAAAATGT,0.0606
13,CCCAACAC,-0.161
14,ACTATAAT,0.00733
15,CACTATGA,-0.211
16,AGGAAATC,0.152
17,ACGTTGCG,0.167
18,CCACAAAA,-0.0154
19,CTATCTTA,-0.197
20,GCTAAATA,-0.102
21,CCGGGTGC,-0.232
22,CAAATGTA,0.0682
23,CTCAACAG,-0.193
24,AGGTTACT,-0.192
25,CAGCGGAA,-0.123

row,Sequence,PBM E-score
1,CAATATCA,-0.028
2,GTCAGAAC,-0.0461
3,CCGACCCG,0.185
4,GACGATTA,0.0551
5,GGAGTTAC,0.00868
6,AATCACAC,0.00776
7,GAAGACGC,-0.0486
8,CACCCCGG,-0.236
9,TAGGCGCA,-0.123
10,CCATGGCA,-0.0795
11,ACCCGGGA,0.044
12,GCGGAGTA,-0.0238
13,CACAATCG,0.104
14,CCGCTAAC,-0.00124
15,GAAACAGC,-0.106
16,AATGGGCC,-0.116
17,ATCACAGC,-0.06
18,CCCTGATC,0.102
19,CCCATCAC,-0.261
20,CGAGAAGC,0.198
21,ACCGGTCG,0.216
22,CTGTCATA,-0.0845
23,CCTGCTAC,-0.099
24,ACAGAACA,0.0426
25,ACTCCGCA,-0.126

row,Sequence,PBM E-score
1,TCTGGACA,-0.0105
2,ACTGTCTC,0.0547
3,ACTTAAGT,-0.16
4,ATTGTGCG,0.113
5,ACAGAGCG,0.00751
6,AGCTTCGA,-0.115
7,AGGATTCG,0.0336
8,CATGAGTA,0.0502
9,CCCGTCTA,-0.106
10,GAGGGGAC,-0.121
11,CATTACCG,-0.025
12,CGATTAAC,0.217
13,ACACATCA,-0.0417
14,ACAGACCG,0.0348
15,AATCATGT,0.0212
16,GGTCCTCA,-0.088
17,AATGGCAG,-0.174
18,ACATAACA,-0.0522
19,AGGTGACA,-0.0992
20,ATATTTGA,0.0827
21,ATGCCTTA,-0.104
22,AGTCACCA,-0.189
23,GAGTTTGC,-0.0545
24,CACTTAAG,-0.0616
25,CTAAGCTC,-0.2

row,Sequence,PBM E-score
1,ATGGTGCG,0.12
2,ACGGCCCT,0.107
3,GCCCATGA,-0.0452
4,GCACGCCC,-0.0551
5,GCCCCGAA,-0.0866
6,CTATGATA,0.163
7,CAGCTCTA,-0.19
8,AAAAATCG,0.0349
9,AAGCTCCT,-0.294
10,AAACGGGA,0.332
11,AAGTTCCG,0.0506
12,GTGCAGGA,-0.214
13,TACTGAGA,-0.229
14,ACTTCTTA,-0.112
15,CAGCGCGA,-0.0491
16,AGCGATCA,0.0802
17,GGAGTAAC,-0.0734
18,GGTCTCTA,-0.153
19,AGCATAGC,-0.245
20,CGCTACCG,0.147
21,AAAGCAGG,-0.203
22,GGTTGGTA,0.163
